Source: PubChem BioAssay AID1346428 (National Center for Advancing Translational Sciences (NCATS), 2018)
Among all 48,000 compounds or so, about 1,200 (2.5%) were called active. About 2% were inconclusive and are not listed.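 Rule for the calls: active = activation of at least 60% and not above a set upper limit (about 1 call in 100 departs from these limits); inconclusive = activation of 40% to 60%, or above that upper limit; inactive = activation under 40%.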 The list shows a part of the results.

biological target: Probable G-protein coupled receptor 32 (Homo sapiens) (UniProt O75388); assay: qHTS for Agonists of Human Resolvin D1 Receptor DRV1; conditions: CHO-K1 GPR32 beta-arrestin PathHunter luminescence, 90 min; at 76.9 µM; active compounds read high; zero percent set by DMSO-only wells; note: 0% is about no effect
Sequence of UniProt O75388 (O75388 whole entry, looked up): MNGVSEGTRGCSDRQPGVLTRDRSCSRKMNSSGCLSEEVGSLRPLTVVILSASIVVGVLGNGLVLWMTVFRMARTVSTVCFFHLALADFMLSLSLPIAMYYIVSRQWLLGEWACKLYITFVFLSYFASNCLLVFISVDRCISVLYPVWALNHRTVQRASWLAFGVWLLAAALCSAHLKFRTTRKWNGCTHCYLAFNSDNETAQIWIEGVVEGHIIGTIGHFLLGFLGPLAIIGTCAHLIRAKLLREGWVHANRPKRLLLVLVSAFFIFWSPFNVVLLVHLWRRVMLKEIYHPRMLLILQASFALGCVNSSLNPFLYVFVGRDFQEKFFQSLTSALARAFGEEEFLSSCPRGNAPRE
Method in brief: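 Step 1: seed CHO-K1 GPR32 beta-arrestin cells, 2,500/well, overnight at 37 °C. Step 2: add compounds, 90 min at 37 °C. Step 3: detection reagent, 1 h ambient, then luminescence.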

activation, active:
O=C(Cn1nnnc1-c1ccccc1F)Nc1ccc(OC(F)(F)F)cc1 75.1%

activation, inactive:
CCOc1cc(C2NC(=O)c3c(sc4c3CCN(C)C4)N2)ccc1OC(=O)c1ccc(Br)cc1 (configuration not stated) 6.71%, CCOc1ccc(CNC(=O)C2CCCN(c3nnc(C)c4c(C)n(-c5ccccc5)nc34)C2)cc1 (configuration not stated) 1.41%, CCOc1ccc(NC(=O)Cn2cnc3sc(C)c(S(=O)(=O)N4CCN(c5ccccc5OC)CC4)c3c2=O)cc1 -5.41%, COc1ccc(NC(=O)c2ccco2)cc1NC(=O)C(C)(C)Oc1ccc(Cl)cc1 -13.6%, Cc1nn2c(C)c(C(=O)NC(C)c3ccccc3)cnc2c1-c1ccc(F)cc1 (configuration not stated) -4.67%, Cc1cccc(C)c1-n1ncc(C(=O)O)c1C1CCN(C(=O)OC(C)(C)C)CC1 14.7%, COc1ccc(C)cc1NC(=O)c1cc2c(=O)n3cccc(C)c3nc2s1 2.37%, CCC(=O)N1CCCc2cc(S(=O)(=O)N3CCC(C(=O)NCc4ccc(F)cc4)CC3)ccc21 5.66%, COc1ccc(Cl)cc1NC(=O)c1cn(C2CCCC2)c(=O)c2c1c1ccccc1n2C -3.82%, Cc1cccc(N(CC(=O)Nc2ccccc2C(F)(F)F)S(=O)(=O)c2ccccc2)c1C -2.07%, O=C(NCC(c1cccs1)S(=O)(=O)c1ccccc1)c1ccc(C(F)(F)F)cc1 (configuration not stated) -6.18%, COc1ccc(OC)c(C2CC(=O)Oc3c2c(=O)n(C)c2ccccc32)c1 (configuration not stated) 0.96%, O=C(Nc1ccc(F)cc1)c1ccc2c(=O)n3c(nc2c1)CCCCC3 -11.4%, COCCCNC(=O)CSc1nc2c(sc3ccccc32)c(=O)n1CCc1ccc(OC)c(OC)c1 -12.3%, Cc1cc(Cl)ccc1OCC(=O)N(Cc1ccco1)Cc1ccccc1F -13.4%, COc1ccc(CNC(=O)CSc2ncc3c(n2)-c2ccc(Cl)cc2N(Cc2ccccc2)S3(=O)=O)cc1 11.7%, CN(C)CCNC(=O)Cn1ccc2cc(S(=O)(=O)N3CCCCCC3)ccc21 8.99%, Cc1cccc(Cn2c(-c3cccc(Br)c3)nc3ccccc32)c1 -38.4%, COc1ccccc1C(=O)NC1(C(F)(F)F)C(=O)Nc2c1c(=O)[nH]c(=O)n2-c1ccc(F)cc1 (configuration not stated) -7.04%, COc1ccc(CNC(=O)CCc2c(C)nc3c(c(C)nn3-c3ccccc3)c2C)cc1 2.44%, CCOC(=O)c1c(C)n(-c2ccc(OC)cc2)c2ccc(OC(=O)COc3ccccc3)cc12 -15.5%
